# Measured values published in PMC4336329 (PLoS ONE, 2015).
# About 2,200 (0.71%) of roughly 310,000 compounds showed an effect of 50% or more. Effects have a minus sign here. This is one part of the list.
# Target: human ether-à-go-go-related gene (hERG) potassium channel (human, UniProt Q12809)
# Assay: primary screen, population patch clamp on CHO cells stably expressing hERG
# Sequence of human ether-à-go-go-related gene (hERG) potassium channel (Q12809 whole entry, looked up): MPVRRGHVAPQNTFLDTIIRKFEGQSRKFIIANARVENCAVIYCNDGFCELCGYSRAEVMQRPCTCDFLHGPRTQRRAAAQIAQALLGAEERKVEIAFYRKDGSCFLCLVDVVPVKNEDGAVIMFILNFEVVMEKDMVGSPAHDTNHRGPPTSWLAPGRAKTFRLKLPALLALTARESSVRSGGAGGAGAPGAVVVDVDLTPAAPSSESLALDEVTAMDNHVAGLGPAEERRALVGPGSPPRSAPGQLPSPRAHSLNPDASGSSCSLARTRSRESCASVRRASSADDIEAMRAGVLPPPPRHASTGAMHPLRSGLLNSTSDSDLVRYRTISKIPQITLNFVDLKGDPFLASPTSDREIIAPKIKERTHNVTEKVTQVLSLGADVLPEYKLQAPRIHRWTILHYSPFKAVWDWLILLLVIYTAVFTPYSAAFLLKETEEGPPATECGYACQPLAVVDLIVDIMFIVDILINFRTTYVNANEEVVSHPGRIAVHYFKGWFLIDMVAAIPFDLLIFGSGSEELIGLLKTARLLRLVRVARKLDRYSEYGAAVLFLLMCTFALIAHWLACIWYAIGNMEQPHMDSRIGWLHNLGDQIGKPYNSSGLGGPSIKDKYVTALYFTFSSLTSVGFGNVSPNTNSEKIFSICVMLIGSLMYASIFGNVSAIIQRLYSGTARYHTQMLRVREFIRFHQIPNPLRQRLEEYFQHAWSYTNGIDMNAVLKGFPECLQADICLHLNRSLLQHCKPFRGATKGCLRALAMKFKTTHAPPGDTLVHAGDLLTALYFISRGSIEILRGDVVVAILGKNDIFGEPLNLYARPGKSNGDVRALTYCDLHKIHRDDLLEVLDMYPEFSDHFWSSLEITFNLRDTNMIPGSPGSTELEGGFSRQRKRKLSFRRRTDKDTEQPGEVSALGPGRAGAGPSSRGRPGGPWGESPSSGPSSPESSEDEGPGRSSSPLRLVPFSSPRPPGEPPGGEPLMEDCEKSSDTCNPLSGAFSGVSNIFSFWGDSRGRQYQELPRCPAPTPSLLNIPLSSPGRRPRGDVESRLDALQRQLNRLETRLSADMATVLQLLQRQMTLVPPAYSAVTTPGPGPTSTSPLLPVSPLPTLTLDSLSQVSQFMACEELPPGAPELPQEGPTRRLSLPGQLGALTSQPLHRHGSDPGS
row,SMILES,"hERG current change (%, negative = inhibition) at 1uM"
1,CC1CC(C)CN(CCCNC(=O)CN2C(=O)COc3ccc(S(=O)(=O)N4CCOCC4)cc32)C1 (centres unmarked),17.7%
2,COc1ccc(C(=O)NNC(=O)OC(C)(C)C)cc1,16.4%
3,CC(=O)c1c(C(C)=O)c(C)n(-c2ccc(C(=O)O)cc2)c1C,11.2%
4,CCOc1ccc2nc(SCc3ccc(F)cc3)sc2c1,2.95%
5,Nc1nnc(SCC(=O)NCC(=O)Nc2ccc(F)c(F)c2F)s1,8.53%
6,CCCC(C1=C(O)CC(C)(C)CC1=O)C1C(=O)CC(C)(C)CC1=O (centres unmarked),12%
7,O=C(NC1CCC(=O)N(CCOc2ccccc2)CC1)OCc1ccccc1 (centres unmarked),-4.57%
8,CC(=O)N1CCC(=NNc2ccnc3cc(Cl)ccc23)CC1,-1.64%
9,CC1CCc2nn(CC(=O)NC3CCCC3)cc2C1 (centres unmarked),7.56%
10,CCOc1ccc(N2CC(C(=O)Nc3ccc(S(=O)(=O)Nc4ncccn4)cc3)CC2=O)cc1 (centres unmarked),4.12%
11,COCCCNc1nc(-c2ccncc2)nc2ccccc12,-0.358%
12,CCCCNC(=O)NCc1cnn(C)c1C,-10.6%
13,COc1ccc(C(CC(=O)NC(C)(C)C)n2cccc2)cc1 (centres unmarked),10.1%
14,CCN(CC)S(=O)(=O)c1cc([N+](=O)[O-])ccc1NNC(=O)Nc1ccccc1,2.42%
15,Cc1ccccc1-c1noc(-c2cccs2)n1,15.2%
16,Cc1nc2ccc(S(=O)(=O)Nc3ccccc3C)cc2s1,3.07%
17,O=C(CSCC(=O)c1ccccc1)Nc1ccccc1Cl,10.2%
18,COc1ccc(-c2ncncc2-c2csc(C)n2)c(O)c1,1.8%
19,CSc1nc(O)c(C(c2ccccc2Cl)c2c(O)nc(SC)[nH]c2=O)c(=O)[nH]1,0.693%

row,SMILES,"hERG current change (%, negative = inhibition) at 1uM"
1,Cc1cccc(N2CCN(C(=O)c3ccc4c(c3)NC(=O)C(CSCc3ccc(F)cc3)N4)CC2C)c1 (centres unmarked),5.51%
2,CCOc1ccccc1NC(=O)C(NCC1CCCCC1)c1ccccc1 (centres unmarked),8.03%
3,CC(C)Oc1ccc(S(=O)(=O)N2CCOCC2)cc1NC(=O)C1COc2ccccc2O1 (centres unmarked),-3.54%
4,Cc1ccc(NC2CCCN(C(=O)c3ccnc(Cl)c3)C2)cc1C (centres unmarked),4.81%
5,Cc1cccc2cc(/C=N/NC(=O)[C@H]3C[C@@H]3c3ccccc3)c(Cl)nc12,9.17%
6,COc1ccc(CCNC(=O)Cc2ccc(OC)c(OC)c2)cc1OC,-5.3%
7,Cc1cc(=O)[nH]c(SCC(=O)N2CCc3ccccc3C2)n1,12.1%
8,Cl.O=C(C1CCN(S(=O)(=O)c2cccs2)CC1)N1CCN(Cc2ccccc2)CC1,19.9%
9,Cn1cccc1/C=C1\CC(C(C)(C)C)C/C(=C\c2cccn2C)C1=O (centres unmarked),1.03%
10,COc1cc2c(cc1OC)C(c1cc3cccc(C)c3[nH]c1=O)N(C(=O)c1ccco1)CC2 (centres unmarked),13.6%
11,O=C(NCCCn1ccnc1)/C(=C\c1cccnc1)NC(=O)c1ccccc1Br,9.44%
12,N#C/C(=C\N1CCCCC1)S(=O)(=O)c1ccc(Cl)cc1,16.6%
13,OCCN(CCCn1c(C(F)(F)F)nc2ccccc21)c1nc(CN2CCCCC2)cs1,3.66%
14,CC(C)(C)c1ccc(C(CC(=O)O)NC(=O)CSc2ccccc2)cc1 (centres unmarked),15.3%
15,CC(C)CNC(=O)CSc1nnc(CN2CCCCCC2=O)n1-c1ccccn1,6.34%
16,Cl.Fc1ccc2c(c1)nnn2C1CCN(Cc2nnnn2CCc2ccccc2)CC1,-37.1%
17,Cc1ccc(C(=O)NCCc2ccc(S(N)(=O)=O)cc2)o1,16.2%
18,Cc1cc(C)nc(Nc2ccc(N3CCCC3)cc2)n1,7.1%
19,CN(Cc1nnc(SCC(=O)NCCc2ccccc2)n1C)S(=O)(=O)c1ccccc1,-10.3%

row,SMILES,"hERG current change (%, negative = inhibition) at 1uM"
1,CN1CCN(S(=O)(=O)c2ccc(N3CCN(c4ccc(O)cc4)CC3)c([N+](=O)[O-])c2)CC1,-1.25%
2,CC(C)NS(=O)(=O)c1ccc(NC(=S)NC(=O)c2cccc([N+](=O)[O-])c2)cc1,3.95%
3,COc1ccc2c(c1OC)C(=O)OC2Nc1ccccn1 (centres unmarked),11.5%
4,Cc1cccc(Nc2nnc(-c3ccc(C(=O)N4C[C@H]5C[C@H](C4)c4cccc(=O)n4C5)cc3)c3ccccc23)c1,10.7%
5,CCOCCc1nnc(NC(=O)c2cc(OC)c(OC)c(OC)c2)s1,10.7%
6,O=S(=O)(CCSc1nc2ccccc2s1)c1nc2ccccc2s1,9.09%
7,CC(=O)c1cccc(S(=O)(=O)Nc2cccnc2)c1,11.9%
8,O=S(=O)(Nc1nc2ccccc2[nH]1)c1ccc(Cl)cc1,-7.9%
9,CC(C)(C)c1ccc(C(=O)Nc2ccc(C=C(C#N)C#N)cc2)cc1,10.6%
10,O=C(COC(=O)c1ccccc1NC(=O)c1ccccc1)c1cccc([N+](=O)[O-])c1,10.9%
11,O=C(O)C1(c2ccccc2)CCN(S(=O)(=O)c2ccccc2)CC1,14.5%
12,CCc1sc(C(=O)N2CCN(CC(=O)Nc3cccc(F)c3)CC2)cc1C,-12.1%
13,CC(C)=CCN1CCN(Cc2cn[nH]c2C2CCCCC2)CC1CCO (centres unmarked),8.82%
14,COC(=O)C1=CNC=C(C(=O)OC)C1c1ccc(Cl)cc1,0.214%
15,CN(Cc1ccccc1NS(=O)(=O)c1ccc2ccccc2c1)C1CCCCC1.Cl,-3.79%
16,CCCCCCC(C)NC(=S)Nc1cc(S(=O)(=O)N(C)C)ccc1C (centres unmarked),-4.97%
17,Cc1cccc(C(=O)NC(=S)NNC(=O)c2ccc(Cl)cc2)c1,9.18%
18,Cc1ccc(C(=O)Nc2ccccc2NC(=O)c2ccc(C)o2)o1,6.24%
